# Measured values taken from the supplement of paper PMC8728848.
# The list shows a part of the results.
# Legend:
# Experiment in all cases: glycan array binding signal (z-score within array); higher = stronger binding
# Details in all cases: glycan notation: IUPAC condensed, linker removed
# [1] = molecular target: Neu5Ac(a2-3)Gal(b1-4)[Fuc(a1-3)]GlcNAc(b1-3)Gal(b1-4)[Fuc(a1-3)]GlcNAc(b1-3)Gal(b1-4)[Fuc(a1-3)]GlcNAc
# In short: (§1)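 Glycan array data were curated from 3228 arrays in the Consortium for Functional Glycomics database and kept only where the protein sequence was available. Glycan names were converted to IUPAC-condensed notation, and columns mapping to the same glycan were averaged. The binding signal is a within-array Z-score, averaged across arrays of the same protein sequence at different concentrations or buffers and across linkers. Negative Z-scores can be read as non-binding.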
# [2] = molecular target: Neu5Ac(a2-3)Gal(b1-4)[Fuc(a1-3)]GlcNAc6S
# In short: as §1
# [3] = molecular target: Neu5Ac(a2-3)Gal6S(b1-4)GlcNAc
# In short: as §1
# [4] = molecular target: Neu5Ac(a2-3)Gal6S(b1-4)[Fuc(a1-3)]GlcNAc
# In short: as §1
# [5] = molecular target: Neu5Ac(a2-3)GalNAc
# In short: as §1
# [6] = molecular target: Neu5Ac(a2-3)GalNAc(b1-4)GlcNAc
# In short: as §1
# [7] = molecular target: Neu5Ac(a2-3)[GalNAc(b1-4)]Gal(b1-4)Glc
# In short: as §1
# [8] = molecular target: Neu5Ac(a2-3)[GalNAc(b1-4)]Gal(b1-4)GlcNAc
# In short: as §1
# [9] = molecular target: Neu5Ac(a2-3)[Neu5Ac(a2-6)]GalNAc
# In short: as §1
# [10] = molecular target: Neu5Ac(a2-6)Gal
# In short: as §1
# [11] = molecular target: Neu5Ac(a2-6)Gal(b1-4)Glc
# In short: as §1
# [12] = molecular target: Neu5Ac(a2-6)Gal(b1-4)GlcNAc
# In short: as §1
# [13] = molecular target: Neu5Ac(a2-6)Gal(b1-4)GlcNAc(b1-3)Gal(b1-4)GlcNAc
# In short: as §1
# [14] = molecular target: Neu5Ac(a2-6)Gal(b1-4)GlcNAc(b1-3)Gal(b1-4)[Fuc(a1-3)]GlcNAc(b1-3)Gal(b1-4)[Fuc(a1-3)]GlcNAc
# In short: as §1
# [15] = molecular target: Neu5Ac(a2-6)Gal(b1-4)GlcNAc6S
# In short: as §1
# [16] = molecular target: Neu5Ac(a2-6)GalNAc
# In short: as §1
# [17] = molecular target: Neu5Ac(a2-6)GalNAc(b1-4)GlcNAc
# In short: as §1
# [18] = molecular target: Neu5Ac(a2-8)Neu5Ac
# In short: as §1
# [19] = molecular target: Neu5Ac(a2-8)Neu5Ac(a2-3)Gal(b1-4)Glc
# In short: as §1
# [20] = molecular target: Neu5Ac(a2-8)Neu5Ac(a2-3)[GalNAc(b1-4)]Gal(b1-4)Glc
# In short: as §1
# [21] = molecular target: Neu5Ac(a2-8)Neu5Ac(a2-8)Neu5Ac
# In short: as §1
# [22] = molecular target: Neu5Ac(a2-8)Neu5Ac(a2-8)Neu5Ac(a2-3)Gal(b1-4)Glc
# In short: as §1
# [23] = molecular target: Neu5Ac(a2-8)Neu5Ac(a2-8)Neu5Ac(a2-3)[GalNAc(b1-4)]Gal(b1-4)Glc
# In short: as §1
# [24] = molecular target: Neu5Ac(a2-8)Neu5Ac(a2-8)Neu5Ac(a2-8)Neu5Ac(a2-3)[GalNAc(b1-4)]Gal(b1-4)Glc
# In short: as §1
# [25] = molecular target: Neu5Ac(b1-6)GalNAc
# In short: as §1
# [26] = molecular target: Neu5Ac(b2-6)Gal(b1-4)GlcNAc
# In short: as §1
# [27] = molecular target: Neu5Ac9Ac(a2-6)Gal(b1-4)GlcNAc
# In short: as §1
# [28] = molecular target: Neu5Gc(a2-3)Gal(b1-3)GlcNAc
# In short: as §1
# [29] = molecular target: Neu5Gc(a2-3)Gal(b1-3)[Fuc(a1-4)]GlcNAc
# In short: as §1
# [30] = molecular target: Neu5Gc(a2-3)Gal(b1-4)Glc
# In short: as §1
# [31] = molecular target: Neu5Gc(a2-3)Gal(b1-4)GlcNAc
# In short: as §1
# [32] = molecular target: Neu5Gc(a2-3)Gal(b1-4)[Fuc(a1-3)]GlcNAc
# In short: as §1
# [33] = molecular target: Neu5Gc(a2-6)Gal(b1-4)GlcNAc
# In short: as §1
# [34] = molecular target: Neu5Gc(a2-6)GalNAc
# In short: as §1
binder,measurement,setting,value
MAL (Maackia amurensis) (protein) SDELSFTINNFMPNQGDLLFQGVATVSPTGVLQLTSEENGQPLEYSVGRVLYTAPVRIWDSTTGAVASFSTSFTFVVKAARGASDGLAFFLAPPDSQIPSGSVSKYLGLFNNSNSDSSNQIVAVEFDTYFGHSYDPWDPNYRHIGIDVNGIESIKTVQWDWINGGVAFATITYLAPNKTLIASLVYPSNQTSFIVAASVDLKEILPEWVRVGFSAATGAPKAVETHDVRSWSFTSTLEANSPADVDN,glycan array binding signal (z-score),[1],-0.422
same,glycan array binding signal (z-score),[2],-0.335
same,glycan array binding signal (z-score),[3],-0.405
same,glycan array binding signal (z-score),[4],-0.419
same,glycan array binding signal (z-score),[5],-0.392
same,glycan array binding signal (z-score),[6],-0.416
same,glycan array binding signal (z-score),[7],-0.394
same,glycan array binding signal (z-score),[8],-0.429
same,glycan array binding signal (z-score),[9],-0.38
same,glycan array binding signal (z-score),[10],-0.416
same,glycan array binding signal (z-score),[11],0.057
same,glycan array binding signal (z-score),[12],-0.338
same,glycan array binding signal (z-score),[13],-0.327
same,glycan array binding signal (z-score),[14],-0.388
same,glycan array binding signal (z-score),[15],0.009
same,glycan array binding signal (z-score),[16],-0.396
same,glycan array binding signal (z-score),[17],-0.382
same,glycan array binding signal (z-score),[18],-0.248
same,glycan array binding signal (z-score),[19],-0.415
same,glycan array binding signal (z-score),[20],-0.41
same,glycan array binding signal (z-score),[21],-0.344
same,glycan array binding signal (z-score),[22],3.2
same,glycan array binding signal (z-score),[23],-0.381
same,glycan array binding signal (z-score),[24],-0.362
same,glycan array binding signal (z-score),[25],-0.337
same,glycan array binding signal (z-score),[26],-0.356
same,glycan array binding signal (z-score),[27],-0.407
same,glycan array binding signal (z-score),[28],-0.422
same,glycan array binding signal (z-score),[29],-0.315
same,glycan array binding signal (z-score),[30],1.62
same,glycan array binding signal (z-score),[31],-0.416
same,glycan array binding signal (z-score),[32],-0.371
same,glycan array binding signal (z-score),[33],-0.315
same,glycan array binding signal (z-score),[34],-0.35
